According to PubChem BioAssay AID1347120 (National Center for Advancing Translational Sciences (NCATS), 2019):
Several values for one entry are separate records, joined by “and”; a condition that tells them apart may be missing. Identical values can stand only once. About 930 (0.24%) of roughly 390,000 compounds were called active. The inconclusive results got no clear call from the source; some entries with a clear call stand among them for comparison. The call rests on the fitted dose curve; in most records, active means well fitted activation curve with a large enough effect; inconclusive means small, poorly fitted or top-dose-only effect; inactive means no such curve, though single readings can be large or run the other way. A potency beside an inconclusive call is a rough fit, not a confirmed value.

experiment: qHTS for Suppressors of FUS Proteinopathy: Primary screen using FUS-linked yeast assay; further: nearly all actives have a fitted effect of over 55% in size;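 on growth rescue (activation): plate controls were DMSO vehicle for no effect and reference control for full effect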; settings: S. cerevisiae FUS-expressing, OD600, 24 h; Potency: growth rescue; growth rescue (activation): at 76.6 µM (top of the series)
How it was run: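 Absorbance at 600 nm, taken 24hr after compound addition, measured rescue of FUS-yeast growth at 30C. Induction used 2% galactose with seeding at OD 0.005. Controls: CP55940 from 92uM final, DMSO only.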
Potency means the concentration at half of the fitted maximal effect; tags describe the fitted curve by direction and shape.

Row | Compound | Potency | growth rescue (activation)
1 | OC[C@@H]1CN(Cc2ccc(-c3ccccc3)cc2)C[C@H](n2cnc3c(NCc4ccc(F)cc4)ncnc32)O1 | inconclusive: 28.2 µM [activator, partial curve, poor fit] | 
2 | COc1ccc(C2C=C(c3cccc(OC)c3)Nc3c(C(=O)Nc4ccccc4)cnn32)cc1 (stereo unspecified) | inconclusive: 31.6 µM [activator, single point] | 
3 | Cc1cccc2sc(NC(=O)CN(C)S(=O)(=O)c3cccs3)nc12 |  | inactive: 6.55%
4 | CC(C)NC(=O)c1ccccc1NC(=O)Cc1ccc(Br)cc1 | inconclusive: 39.8 µM [activator, single point] | 
5 | CC(C)CCN1C(=O)c2ccc(C(=O)OCC(=O)N(CC(C)C)C3CCS(=O)(=O)C3)cc2C1=O (stereo unspecified) | active: 31.6 µM | 
6 | CCc1ccc(C(C)NC(=S)NCc2ccc(F)cc2)cc1 (stereo unspecified) |  | inactive: -3.88%
7 | COc1ccc(C2=Nc3ccccc3NC(=O)C2N(C(=O)c2cc3ccccc3[nH]2)c2ccccc2)cc1 (stereo unspecified) | inconclusive: 28.2 µM [activator, single point] | 
8 | CCOc1cc(S(=O)(=O)NCc2ccc(OC)cc2)c(OCC)cc1-n1cnnn1 |  | inactive: 36.2%
9 | Cc1cccc(N2CCN(C(=O)C3CCN(S(=O)(=O)c4cccc5cccnc45)CC3)CC2C)c1 (stereo unspecified) | active: 22.4 µM | 
10 | CCOc1ccc2oc(=O)cc(CN3CCN(c4cc(C)ccc4C)CC3)c2c1 |  | inactive: -20.4%
11 | CCOC(=O)[C@]12CCCC=C1N(CCCOC)C(=O)[C@@H]2CC(=O)NCCCN1CCCC1=O |  | inactive: -3.88%
12 | CC(C)CC(COCc1ccc(C(F)(F)F)cc1)N1CCN(C(=O)c2ccc(C(F)(F)F)cc2)CCC1=O (stereo unspecified) | inconclusive: 28.2 µM [activator, single point] | 
13 | CC(=O)Nc1ccc(N=C(C2=C(O)c3ccccc3C2=O)c2ccccc2)cc1 |  | inactive: 2.19%
14 | Cn1c(SCC(=O)Nc2ccc(C(=O)O)cc2)nc2scc(-c3ccccc3Cl)c2c1=O | active: 35.5 µM | 
15 | NNC(=O)c1[nH]c2ccc(Br)cc2c1-c1ccccc1 | inconclusive: 4.47 µM [activator, full curve] | 
16 | COC(=O)[C@H](CCSC)NC(=O)NCc1cccs1 | inconclusive: 50.1 µM [activator, partial curve, poor fit] | 
17 | Cc1ccccc1C(=O)Nc1ccc(C(=O)OCc2cc(=O)n3c4c(sc3n2)CCCC4)cc1 | inconclusive: 31.6 µM [activator, single point] | 
18 | Cc1ccc(S(=O)(=O)N2CCCc3cc(NC(=O)c4c(F)cccc4F)ccc32)cc1 | inconclusive: 39.8 µM [activator, single point] | 
19 | COc1ccc(Nc2c3c(nc4ccccc24)CCC3)cc1 | inconclusive: 12.6 µM [activator, partial curve, poor fit] | 
20 | COc1ccc(OC)c(C(c2nnnn2Cc2ccccc2)N2CCN(C3CCCCC3)CC2)c1 (stereo unspecified) | inconclusive: 0.891 µM [activator, full curve, poor fit] | 
21 | CNc1oc(/C=C/c2cc(OC)c(OC)c(OC)c2)nc1C#N |  | inactive: -9.37%

Row | Compound | Potency | growth rescue (activation)
22 | Cc1cccc(OCCCCn2c(C3CC(=O)N(c4ccc(C)cc4C)C3)nc3ccccc32)c1 (stereo unspecified) | inconclusive: 20 µM [activator, single point] | 
23 | Cc1ccc(Cl)cc1-n1ncc2c(N3CCC(C(N)=O)CC3)ncnc21 |  | inactive: -6.61%
24 | O=c1cc(-c2ccccc2)[nH]c2ccccc12 |  | inactive: -6.15%
25 | CCN(CC)C(=O)C1=C(C)N(Cc2ccc(C(C)(C)C)cc2)C(=O)C(CC(=O)NCc2cccc3ccccc23)C1 (stereo unspecified) | inconclusive: 50.1 µM [activator, single point] | 
26 | CCCCCCCC(=O)Nc1ccc(C(=O)N/N=C/c2cccc([N+](=O)[O-])c2)cc1 |  | inactive: 2.06%
27 | Cc1ccc(CNC(=O)Cn2cc(C(=O)c3ccc(Cl)cc3)c(=O)c3ccc(C)nc32)cc1 |  | inactive: -14.6%
28 | CN(CCO)c1cccc2c1S(=O)(=O)N(Cc1cn(Cc3ccccc3C(F)(F)F)nn1)Cc1ccccc1O2 | inconclusive: 25.1 µM [activator, single point] | 
29 | CCNC(=O)NC(=O)COC(=O)c1cccc(S(=O)(=O)N2CC3(C)CC2CC(C)(C)C3)c1 (stereo unspecified) | inconclusive: 50.1 µM [activator, single point] | 
30 | Cc1cccc(C)c1Nc1c(-c2ccccc2O)nc2ncccn12 | inconclusive: 50.1 µM [activator, single point] | 
31 | Cc1ccccc1CN(c1ccc(C(=O)N2CCc3ccccc3C2)cc1)S(C)(=O)=O | inconclusive: 31.6 µM [activator, single point] | 
32 | CC(C)(O)CCc1c(-c2ccc(O)cc2O)oc2c3c(cc(O)c2c1=O)OC(C)(C)C=C3 | inconclusive: 25.1 µM [activator, single point] | 
33 | CCCCCCSc1nc(O)c(C2OC(=O)c3c2ccc(OC)c3OC)c(=O)n1CC (stereo unspecified) | inconclusive: 35.5 µM [activator, single point] | 
34 | COc1cccc(CN(C)C(=O)COc2ccc(C(=O)c3ccc(Cl)cc3)cc2)c1OC | inconclusive: 31.6 µM [activator, partial curve, poor fit] | 
35 | CCCCCCC(=O)Nc1nc(C)c(-c2csc(Nc3cc(OC)ccc3OC)n2)s1 | inconclusive: 28.2 µM [activator, single point] | 
36 | COc1cccc(CNC(=O)c2ccc(CS(=O)Cc3ccc(Cl)cc3)o2)c1 (stereo unspecified) |  | inactive: 13.9%
37 | COc1ccc(/C=N/NC(=O)c2cc(-c3ccccc3)nc3ccccc23)c(OC)c1 |  | inactive: 3.37%
38 | CCC(=O)N1c2ccc(S(=O)(=O)N3CCN(c4ccccc4Cl)CC3)cc2CC1C (stereo unspecified) | inconclusive: 44.7 µM [activator, single point] and inconclusive: 15.8 µM [activator, partial curve] | 
39 | C#CCN(C[C@@H]1[C@@H](OC(=O)Nc2c(C)noc2C)[C@@H](OC(=O)Nc2c(C)noc2C)Cn2c(=O)n(CCCCCC)c(=O)n21)S(=O)(=O)c1ccc(C)cc1 | inconclusive: 39.8 µM [activator, single point] | 
40 | CC1(c2nnnn2Cc2ccccc2)CCC(=O)N1C1CC1 (stereo unspecified) |  | inactive: -4.89%
41 | CCOC(=O)C1CCCN(S(=O)(=O)c2cc(-c3cc(C)no3)ccc2C)C1 (stereo unspecified) | inconclusive: 22.4 µM [activator, partial curve, poor fit] | 
